# Experiments:
# [1] = test system: Epstein-Barr virus (EBV, strain B95-8); test: Indirect immunofluorescence IC50 determination in EBV-infected Raji cells; conditions: read-out: IC50 for EBV, 3 days
# [2] = test system: human influenza A virus (Influenza A, strain WSN/33); test: Standard plaque reduction assay, influenza A; conditions: strain WSN/33, plaque reduction
compound,measurement,setting,value
"C[C@H]1[C@H](OC(=O)CCC(=O)O)O[C@@H]2O[C@@]3(C)CC[C@H]4[C@H](C)CC[C@@H]1[C@@]24OO3 [ART, artesunate]",IC50,[1],7.21 ± 2.25 µM
same,ART sensitivity of influenza A virus,[2],not inhibited

# From patent publication US20110166106A1, “ARTEMISININ AND DERIVATIVES THEREOF AS ANTIVIRALS” (priority 2008, published 2011)
